Consider 46 compounds from publication PMC4336329 (PLoS ONE, 2015).

The structures appear in SMILES notation. About 14,000 (4.5%) of roughly 310,000 compounds showed an effect of 50% or more. The effect is printed as a negative number. The list shows a part of the results.
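Note: peak tail current of the secondary pulse compared with the same well before compound.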

For the assay, the target named is human ether-à-go-go-related gene (hERG) potassium channel (human, UniProt Q12809). Kind of assay: primary screen, population patch clamp on CHO cells stably expressing hERG.
human ether-à-go-go-related gene (hERG) potassium channel, sequence (Q12809 whole entry, looked up): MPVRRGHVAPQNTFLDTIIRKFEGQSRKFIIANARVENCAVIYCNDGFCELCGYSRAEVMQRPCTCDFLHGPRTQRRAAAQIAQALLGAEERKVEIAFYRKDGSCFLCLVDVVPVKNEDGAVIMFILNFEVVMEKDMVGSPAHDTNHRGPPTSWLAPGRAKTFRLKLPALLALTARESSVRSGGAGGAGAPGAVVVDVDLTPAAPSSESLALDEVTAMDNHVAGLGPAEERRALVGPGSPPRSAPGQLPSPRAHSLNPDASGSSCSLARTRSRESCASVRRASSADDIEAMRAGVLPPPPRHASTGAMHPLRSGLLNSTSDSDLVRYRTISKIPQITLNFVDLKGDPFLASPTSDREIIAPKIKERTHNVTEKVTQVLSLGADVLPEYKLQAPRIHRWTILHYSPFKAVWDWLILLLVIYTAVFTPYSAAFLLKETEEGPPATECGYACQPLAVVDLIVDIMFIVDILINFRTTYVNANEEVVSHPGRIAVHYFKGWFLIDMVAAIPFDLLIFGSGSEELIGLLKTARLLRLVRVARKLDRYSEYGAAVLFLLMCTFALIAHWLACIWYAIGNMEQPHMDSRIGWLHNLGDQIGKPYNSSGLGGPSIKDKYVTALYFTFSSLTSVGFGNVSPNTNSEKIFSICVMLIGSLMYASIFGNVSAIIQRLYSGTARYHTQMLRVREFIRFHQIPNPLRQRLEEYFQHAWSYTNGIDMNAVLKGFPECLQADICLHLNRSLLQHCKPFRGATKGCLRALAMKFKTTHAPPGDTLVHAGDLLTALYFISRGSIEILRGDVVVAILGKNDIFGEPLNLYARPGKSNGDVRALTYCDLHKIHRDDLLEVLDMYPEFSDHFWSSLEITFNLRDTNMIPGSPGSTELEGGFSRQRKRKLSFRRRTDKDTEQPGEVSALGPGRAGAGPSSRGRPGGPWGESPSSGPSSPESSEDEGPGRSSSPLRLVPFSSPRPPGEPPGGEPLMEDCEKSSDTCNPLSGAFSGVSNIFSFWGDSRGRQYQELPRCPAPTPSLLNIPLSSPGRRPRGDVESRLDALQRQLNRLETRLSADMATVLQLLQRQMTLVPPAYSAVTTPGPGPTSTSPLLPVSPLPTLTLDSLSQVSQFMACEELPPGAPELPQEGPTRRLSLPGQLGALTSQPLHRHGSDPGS
As to `CNC(=O)c1c(N)sc2c1CCCCC2`, the “hERG current change (%, negative = inhibition) at 10uM” value is -3.16%.
Then `O=C(Nc1cccc(F)c1)NC1CCCCCCC1`, with 7.75%.
Regarding `Cc1occc1-c1nnc(SCC(=O)c2ccc(F)cc2)n1Cc1ccco1`, the “hERG current change (%, negative = inhibition) at 10uM” value is listed as -42.6%.
Then `Cc1cc(C)n(-c2ccc(Cl)c(Cl)c2)n1`, with 7.55%; and `C=CCNc1nc(Nc2ccc(OC)cc2OC)nc(OCC)n1`, with 2.07%; and `CC(=O)Nc1cccc(NC(=S)Nc2cccc(Cl)c2Cl)c1`, with 19.3%.
In the case of `COc1ccc(OC)c(-n2c(C)cc(C=O)c2C)c1` it was 14.9%; in that of `CC(NC(=O)c1ccccc1NC(=O)CSc1nnnn1C)c1ccccc1` (stereo not shown), -8.38%.
With `Cc1cc(/C=N/NC(N)=S)c(C)n1-c1cccc(Cl)c1`, the “hERG current change (%, negative = inhibition) at 10uM” value is -6.12%.
With `CCOc1ccccc1NC(=O)CN1C(=O)COc2ccccc21`, the “hERG current change (%, negative = inhibition) at 10uM” value came to 4.95%.
On to `CCOc1ccc(/C=N/NC(=O)c2nnn(-c3nonc3N)c2CN(C)C2CCCCC2)cc1`, for which the “hERG current change (%, negative = inhibition) at 10uM” value is 5.09%.
Take `CN(c1ccccc1)S(=O)(=O)c1cccc(C(=O)NCCc2ccc(O)c(O)c2)c1`: the “hERG current change (%, negative = inhibition) at 10uM” value is recorded as -16.3%.
In the case of `Cc1ccc(NC(=O)c2nn(C34CC5CC(CC(C5)C3)C4)cc2[N+](=O)[O-])cc1` it was -5.38%.
In the case of `CCOc1ccccc1C(=O)NC1CCN(Cc2ccccc2)CC1` it was -46.6%.
In the case of `Cc1ccc(C)c(-n2c(SCC(=O)N3CCC(C(=O)O)CC3)nnc2-c2cccc(Cl)c2)c1` it was 35.2%; in that of `N#Cc1ccc(-c2csc(NC(=O)/C=C/c3cccs3)n2)cc1`, 3.52%.
As to `Cc1c(CN2CCN(CC(C)(C)C)C(CCO)C2)[nH]c2ccccc12` (stereo not shown), the “hERG current change (%, negative = inhibition) at 10uM” value worked out at 12.2%.
For the compound `CCOC(=O)c1c(NC(=O)CSc2nnc(-c3ccccc3)n2CC)sc(C(C)=O)c1C`, the “hERG current change (%, negative = inhibition) at 10uM” value is -31%.
For the compound `CCOC(=O)Nc1oc2ccccc2c(=O)c1CN1CCOCC1`, the “hERG current change (%, negative = inhibition) at 10uM” value was 7.12%.
In the case of `CCOc1ccc(S(=O)(=O)Nc2ccccc2SC)c2cccnc12` it was -7.98%; in that of `O=c1nc(-c2ccccc2)nc(-c2ccccc2)[nH]1`, 10%.
Then `O=C1CC(c2ccccc2Br)c2cc3c(cc2N1)CCC3` (stereo not shown), with 3.46%; and `COC(=O)c1cc(C(=O)NC(C)C2CC3CCC2C3)cc([N+](=O)[O-])c1` (stereo not shown), with -39.9%; and `Cc1nc(-c2ccc(NC(=O)C3CC3)cc2)cs1`, with 20.8%.
Then `O=C(Nc1nccs1)c1cc(Cl)nc2ccccc12`, with 11.4%; and `CCn1c(=O)c2cc(C(=O)N(C)c3ccccc3F)sc2c2ccccc21`, with -14.1%; and `COc1ccccc1C(C)NCC(=O)NCc1ccc(C)cc1` (stereo not shown), with -16.1%.
Regarding `CC(=O)N1c2ccc(S(=O)(=O)N3CCC(C(=O)NC4CCC(C)CC4)CC3)cc2CC1C` (stereo not shown), the “hERG current change (%, negative = inhibition) at 10uM” value worked out at 17.3%.
In the case of `CC(C)Oc1ccc(CCN=C(N)N=C(N)N)cc1Cl.Cl`, the “hERG current change (%, negative = inhibition) at 10uM” value amounted to 18.9%.
In the case of `O=C(CCN1CCCCC1c1cccnc1)NCc1ccccc1` (stereo not shown) it was 2.82%.
`NC(=O)CSc1nnc2ccc(-c3ccco3)nn12`: the “hERG current change (%, negative = inhibition) at 10uM” value is recorded as 7.7%.
Then `Cc1ccc(NC(=O)Nc2cccnc2)cc1Cl`, with -13%; and `CC(C)(C)C(=O)Nc1nnc(SCc2ccc(F)cc2)s1`, with -24.2%; and `CCC(=O)N1CCN(c2ccccc2NC(=O)c2ccc([N+](=O)[O-])o2)CC1`, with -69%.
Regarding `CC(C)c1nc2sc3c(c2c(=O)o1)CCCC3`, the “hERG current change (%, negative = inhibition) at 10uM” value was 5.59%.
For `COc1ccc(CN2C(=O)CS/C2=N/N=C/c2ccccc2)cc1`, the “hERG current change (%, negative = inhibition) at 10uM” value came out at 14%.
`Cl.O=C(CN1CCN(C2CCCCC2)CC1)Nc1ccccc1-c1ccccc1`: the “hERG current change (%, negative = inhibition) at 10uM” value is on record as -70.1%.
In the case of `O=C(COC(=O)C1CC1)Nc1ccc2[nH]c(=O)[nH]c2c1` it was 14%; in that of `CCn1c(N)c(C(=O)NCC2CCCO2)sc1=S` (stereo not shown), 11.8%.
With `COC(=O)CCC(=O)Nc1ccccc1C(=O)Nc1ccccc1`, the “hERG current change (%, negative = inhibition) at 10uM” value is listed as 9.16%.
In the case of `CCOC(=O)c1cccc(NC(=O)CCCn2c(=O)c3cccn3c3cccnc32)c1` it was 6.83%; in that of `COCC(=O)Nc1nnc(-c2cccs2)s1`, 9.33%; in that of `CCN1CCN(CC#CCOc2ccccc2OC)CC1.O=C(O)C(=O)O`, -38.5%.
Then `Nc1cc(-c2nc3ncccc3o2)ccc1Cl`, with -1.78%.
Then `Cc1cc2c(cc1S(=O)(=O)CCC(=O)N1CC(C)CC(C)C1)OCC(=O)N2` (stereo not shown), with -29.4%.
For the compound `CSCc1cccc(C(=O)OC(C)C(=O)Nc2c(C)n(C)n(-c3ccccc3)c2=O)c1` (stereo not shown), the “hERG current change (%, negative = inhibition) at 10uM” value is -8%.
